Out of some 45,000 compounds screened, about 65 (0.1%) were called active. The call rests on the fitted dose curve; in most records, active means well fitted activation curve with a large enough effect; inconclusive means small, poorly fitted or top-dose-only effect; inactive means no such curve, though single readings can be large or run the other way. The list shows a part of the results.
Each molecule was assayed against Galactocerebrosidase (Homo sapiens) (UniProt P54803) (assay: A Novel Cell-Based Assay to Identify Small Molecules for B -Galactocerebrosidase). Conditions: 145M-Twi-hGALC-G270D cells (Twitcher mouse brain line with human GALC G270D), HMU-beta-Gal fluorescence, 48 h; series mostly up to 57.5 µM; activation: at the top concentration.
UniProt P54803, sequence (P54803 whole entry, looked up): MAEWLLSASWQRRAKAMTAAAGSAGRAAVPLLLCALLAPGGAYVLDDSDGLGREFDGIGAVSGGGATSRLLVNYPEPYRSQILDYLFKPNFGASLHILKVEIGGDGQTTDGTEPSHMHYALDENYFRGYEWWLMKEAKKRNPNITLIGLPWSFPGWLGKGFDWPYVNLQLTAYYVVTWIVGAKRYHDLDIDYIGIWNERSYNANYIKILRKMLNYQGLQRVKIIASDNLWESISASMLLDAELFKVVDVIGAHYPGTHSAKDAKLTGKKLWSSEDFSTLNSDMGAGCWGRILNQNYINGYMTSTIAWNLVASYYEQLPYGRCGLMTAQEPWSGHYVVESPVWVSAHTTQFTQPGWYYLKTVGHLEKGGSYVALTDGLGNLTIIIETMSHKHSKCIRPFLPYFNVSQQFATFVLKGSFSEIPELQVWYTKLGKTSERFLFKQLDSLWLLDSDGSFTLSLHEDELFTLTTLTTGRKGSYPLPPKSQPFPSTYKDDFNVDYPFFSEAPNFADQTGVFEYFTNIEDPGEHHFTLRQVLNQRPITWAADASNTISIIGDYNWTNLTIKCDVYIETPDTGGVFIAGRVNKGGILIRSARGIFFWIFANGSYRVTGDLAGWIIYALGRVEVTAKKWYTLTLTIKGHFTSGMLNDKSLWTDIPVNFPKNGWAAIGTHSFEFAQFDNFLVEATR
Description: Lysosomal storage diseases (LSDs) are caused by genetic mutations in genes encoding proteins important for normal lysosomal function. Globoid cell leukodystrophy (GLD), mostly known as Krabbe disease, is a prototype of the neurological LSDs caused by deficiency of beta-galactocerebrosidase (GALC). In brain specimens of GLD patients, psychosine levels are substantially elevated. At elevated concentrations, psychosine becomes cytotoxic to neuronal cells, particularly to oligodendrocytes (OLG), neural cells responsible for myelin formation. Therefore, the biochemical disturbances in GLD are manifested by different degrees of brain demyelination resulting in a broad spectrum of neurological manifestations. Most of the FDA-approved therapies are based on enzyme replacement therapeutic (ERT) agents, which treat non-neurological symptoms of Gaucher disease, Fabry disease, few mucopolysaccharidoses and Pompe disease. Unfortunately, in GLD, a primarily neurological LSD, ERT agents, as large molecular weight molecules unable to cross the blood-brain barrier, which makes this an inefficacious therapeutic approach. In GLD, increasing the residual GALC activity just above the critical threshold (~10% of wild type enzymatic activity), the cytotoxic levels of psychosine will be reduced, avoiding the OLGs apoptosis and the subsequent demyelination process. This will translate in disease stabilization and amelioration of GLD patient symptoms.
A cell-based assay in 1,536-well plate format was developed to implement a quantitative high-throughput screening (qHTS) assay using GLD-disease relevant cells to identify small molecules that produce enhancements of the residual enzymatic activity levels of mutants GALC found and prevalent in GLD patients. Compounds that are active may therefore have some therapeutic application for GLD. After the treatment of live cells for a determined period, using a fluorescent GALC specific substrate, the mutant residual GALC activity is measured. This cell-based qTHS assay was used to screen part of the MLPCN library for small molecule able to increase the mutant GALC enzymatic activity. In this assay, increased fluorescent signal corresponds to enhanced levels of mutant GALC residual enzymatic activity. Activation is the desired outcome for this assay.
NIH Chemical Genomics Center [NCGC]
NIH Molecular Libraries Probe Centers Network [MLPCN]
Assay Submitter (PI): Gustavo Maegawa MD,PhD, University of Florida, Gainesville, FL
2)#Two cell lines were established for the assay: 145M-Twi-hGALC-G270D (brain-derived Twitcher cell line stably expressing human GALC-G270D) and 145M-Twi-hGALC-WT (same 145M-Twi stably expressing human GALC wild type). The Twitcher is the murine C57B/6 model for GLD with naturally occurring homozygous nonsense GALC mutation. The 145M-Twi cell line was established at Maegawa lab (Ribbens J et al 2014).
a.#Media: DMEM/F12 (1:1) with 10% fetal bovine-serum (FBS) with penicillin/streptomycin (PS-1X - 100 I.U./mL of penicillin+100 ug/mL of streptomycin).
b.#The 6-Hexadecanoylamino-4-methylumbelliferyl-b-D-galactoside (HMU-B-gal) substrate was prepared as per Wiederschain et al 1992. Using 20-mL borosilicate tubes, 2.20 mg of HMU-b-Gal was added in each tube to prepare substrate-film with a final air-nitrogen stream evaporation to remove all diluent solvents.
c.#The HMUb-Gal substrate buffer consists of 0.2 M Na2HPO4 (sodium phosphate dibasic)/ 0.1 M Citric Acid with the pH adjusted to 5.2 using HCl. Sodium Azide at 0.02% and Sodium Taurocholate (NaTC) at 1 mg/mL were added to this substrate buffer.
d.#The HMU-b-Gal stopping buffer consist of 0.5 M NaHCO3 (sodium bicarbonate) /0.5 M Na2CO3 (sodium carbonate). […] Triton X-100 at 0.25% was added.
4)#Preparation of HMU-b-Gal substrate tubes
Adding 18.6 mL of the HMUb-Gal substrate buffer to each 20-mL tube (2.20 mg of HMU-b-Gal) will reach a concentration of 0.2 mM. Vortex well the tube until the solution is fully homogenized (clear cloudy solution). […]
Further: 0% is about no effect; nearly all actives have a fitted effect of over 65% in size.

activation, inactive:
COc1ccc(Cn2ccc3nc(C)c(C(=O)N4CCN(c5cc(C)ccc5C)CC4)cc3c2=O)cc1 -8.7%
CCCNC(=O)C1CCC(Cn2c(=O)c3sccc3n(CC(=O)Nc3ccccc3C)c2=O)CC1 (centres undefined) -9.8%
Cc1cccc(NC(=O)C2CCN(S(=O)(=O)c3ccc4c(c3)CCCC(=O)N4)CC2)c1 -12.1%
Cc1ccc2c(c1)CC(C)N2S(=O)(=O)c1nnc(NC(=O)C(C)C)s1 (centres undefined) -11.1%
CCCN(C(=O)c1sc2nc3n(c(=O)c2c1C)CCCC3)c1ccccc1C -15.7%
Cc1c(Cl)cccc1NC(=O)C(=O)NCC(c1cccnc1)N1CCN(c2ccccc2)CC1 (centres undefined) -16.6%
COc1ccc(NC(=O)Cn2cc(C(=O)C3CCCCC3)c3ccccc32)cc1 -16.7%
Cc1cc(=O)n(CC(=O)Nc2cccc([N+](=O)[O-])c2)c(-n2nc(C)cc2C)n1 -15.1%
CC(NC(=O)c1ccc2nc(Cc3ccccc3)oc2c1)c1ccccc1 (centres undefined) -8.69%
COc1ccc(-c2cc(C(F)(F)F)nc(SCCC(=O)Nc3cccc(O)c3)n2)cc1 -8.06%
COC(=O)c1c(NC(=O)c2cc3nc(-c4ccc(Br)cc4)cc(C(F)(F)F)n3n2)sc2c1CCCC2 -10.7%
CCc1ccc(Nc2cc(C(=O)NCCCN(C)c3ccccc3)c3ccccc3n2)cc1 -6.55%
COc1ccc(OC)c(NC(=O)N2CCC(N3CCN(Cc4ccc(F)cc4)C(=O)C3=O)CC2)c1 -9.6%
CCc1noc(-c2ccc(N(C)Cc3ccc(OC)cc3)c([N+](=O)[O-])c2)n1 -13.3%
CCOc1ccc(CCNC(=O)c2sc3ncccc3c2-n2c(C)ccc2C)cc1 -0.361%
Cc1ccc(-n2nc(C)c3c(C)c(CCC(=O)NCc4ccccc4Cl)c(C)nc32)cc1 -16.1%
CC(=O)NCCNC(=O)c1ccc2c(=O)n(CCc3ccccc3)c(=O)[nH]c2c1 -2.08%
COc1ccc(C2=C(C(C)=O)Sc3nnc(-c4ccccc4)n3N2C(C)=O)cc1 -8.76%
Cc1nc2nc(C)c(CCC(=O)NCc3cccc(Cl)c3)c(C)n2n1 -0.0245%
O=C(Cn1c(=O)n(Cc2ccco2)c(=O)c2sc3ccccc3c21)Nc1ccccc1C(F)(F)F -16.6%
CCOc1cc(C2NC(=O)c3c(sc4c3CCN(C)C4)N2)ccc1OC(=O)c1ccc(F)cc1 (centres undefined) -11.2%
CCCCNC(=O)NS(=O)(=O)c1ccc(N)cc1 -14.3%
COc1cc(NC(=O)c2cc3cc4cc(OC)ccc4nc3o2)cc(OC)c1 -1.89%
Fc1ccc(Cc2cn3cc(-c4ccc(F)cc4)nc3s2)cc1 -16.5%
COC(=O)c1ccccc1NC(=O)CCc1c(C)nc2cc(-c3ccc(Cl)cc3)nn2c1C -9.89%
CC(=O)c1cc(-c2ccc(F)cc2)n(CCC(=O)NC2CCCCC2)c1C -5.13%
COc1cc(C2CC(=O)N(CC(=O)Nc3ccccc3F)c3ccccc3S2)cc(OC)c1OC (centres undefined) -12.7%
CCC(C(=O)NCCc1ccc(SC)cc1)n1nc(C)c2c(C)n(-c3ccc(C)cc3)nc2c1=O (centres undefined) -8.72%
Cc1ccc(-n2nc(CO)c(C(=O)NC(C)c3ccccc3)n2)cc1C (centres undefined) 2.93%
COC(=O)c1sc2ccccc2c1S(=O)(=O)N1CCN(c2ccc(C(C)=O)cc2)CC1 -13.7%
Cc1ccc(CCNC(=O)c2ccc(CSc3nc4ccncc4n3Cc3ccc(F)cc3)cc2)cc1 -15%
O=S(=O)(Nc1cccc(-c2ccc(N3CCCCC3)nn2)c1)c1ccc(F)cc1F -6.99%
CSc1ccc(CCNC(=O)CCc2c(C)nc3c4cccnc4nn3c2C)cc1 -15.3%
CCSc1nc2sc3c(c2c(=O)n1-c1ccc(C)cc1)CCCC3 -3.7%
O=C(CC1N=C2c3ccccc3N=C(SCc3cccc(F)c3)N2C1=O)NC1CCCCC1 (centres undefined) -9.45%
COc1cccc(CNCc2c(C(=O)O)c(C)n(Cc3ccc(F)cc3Cl)c2C)c1OC -11.7%
O=C(Nc1ccc(F)c(F)c1)c1ccc(F)c(S(=O)(=O)N2CCC3(CC2)OCCO3)c1 -18.1%
Cc1ccc(Cl)cc1N1CCN(C(=O)c2cn(C)c3ccc(S(=O)(=O)N4CCCCC4)cc3c2=O)CC1 -17.1%
CC(C)CNc1cc(NC2CCCCC2)c2c3c(onc13)-c1ccccc1C2=O -12.8%
COc1ccc(NC(=O)CSc2c(C(C)C)cnc3c2c(=O)n(C)c(=O)n3C)c(OC)c1 -13.3%
COc1ccc2cc3c(N)nn(C(=O)c4ccc(F)cc4Cl)c3nc2c1 0.598%
CCn1c(=O)n(CC2CCC(C(=O)NC(C)C)CC2)c(=O)c2sccc21 (centres undefined) -9.56%
CCOC(=O)c1c(C)[nH]c(C)c1S(=O)(=O)N1CCC(C(=O)Nc2ccc(OC)c(OC)c2)CC1 -22.9%
CCN1CCN(c2ncnc3c2cnn3-c2ccc(F)cc2)CC1 -10.4%
CCOC(=O)c1cc(CC)sc1NC(=O)COc1ccccc1C -8.23%
COc1ccc(C(=O)NCC(c2ccc3c(c2)OCO3)N2CCN(C)CC2)cc1OC (centres undefined) -21.1%
Cc1cc(NC(=O)CN2CCC(O)CC2)nc2c1c(=O)oc1ccccc12 -15.4%
COc1ccc(NC(=O)c2ccc3oc(=O)c(S(=O)(=O)c4ccc(F)cc4)cc3c2)c(OC)c1 -17.1%
CC(C)c1nc2sc3c(N4CCCCC4)ncnc3c2c2c1CCCC2 -11.1%
COc1ccc(CC(=O)Nc2ccc(-c3nc4ccccc4s3)c(C)c2)cc1 -18.8%
CCOc1ccc(-n2c(SCC(=O)c3ccccc3)nc3c([nH]c4ccccc43)c2=O)cc1 -0.88%
Cc1ccc(Cl)cc1N1CCN(C(=O)c2cc(S(=O)(=O)N3CCCCC3)cn2C)CC1 -27.6%
COc1ccc(C(=O)Oc2ccc(C3NC(=O)c4c(sc5c4CCN(C)C5)N3)cc2OC)cc1 (centres undefined) -13.8%
COCC(C)Nc1ncnc2c1cnn2-c1cccc(Cl)c1 (centres undefined) -7.74%
COC(=O)c1ccc(CSc2nc3ccncc3n2Cc2ccc(F)cc2)cc1 -4.98%
CC(=O)Nc1ccccc1-c1nc2ccccc2n(C(C)C(=O)Nc2cccc(C)c2C)c1=O (centres undefined) 8.85%
CC(=O)N(Cc1cccnc1)c1nc2cc(C)cc(C)c2s1 -8.88%
Cc1ccc(-n2c(=O)[nH]c3sc4c(c3c2=O)CCCC4)cc1 -14%
O=S(=O)(c1ccc(Cl)cc1)c1nnn2c1nc(NCc1ccccc1)c1sccc12 -13.6%
O=C(Nc1ccccc1)N(Cc1cccs1)c1ccc(Cl)cc1 -12.5%
CCOc1ccc(NC(=O)CC2C(=O)N(c3cccc(C)c3)C(=O)N2CCC2=CCCCC2)cc1 (centres undefined) -17.7%
CC1CN(c2cc3c(cc2F)c(=O)c(C(=O)O)cn3-c2ccc(F)cc2F)CCN1 (centres undefined) -7.93% [at 5.77 µM]
CSc1ccc(/C=C/c2nc3ccccc3n2S(=O)(=O)c2ccc(F)c(C)c2)cc1 -20.3%
CCOc1ccc(NC(=O)CCc2c(C)nc3c(c(C)nn3-c3ccccc3)c2C)cc1 -13%
CCc1ccc(CN(Cc2ccco2)C(=O)c2ccc(C)cc2)cc1 -2.52%
Cc1ccc(S(=O)(=O)n2nc(C)c(S(=O)(=O)N3CCCCC3)c2C)cc1 0.493%
CCCCN(CC)C(=O)C1CCC(CNS(=O)(=O)c2cccc3nsnc23)CC1 (centres undefined) -13.1%
Cc1cc(NC(=O)c2ccco2)cc(-c2nc3cc(Cl)ccc3o2)c1O -10%
COc1ccccc1C(=O)N(Cc1ccco1)Cc1ccccc1F 2.18%
COc1ccc(Cl)cc1NC(=O)CN1C(=O)CSc2ccc(S(=O)(=O)N3CCCC3)cc21 -7.39%
COc1cc(OC)c(NC(=O)CN(C)S(=O)(=O)c2ccc3c(c2)CCCC(=O)N3)cc1Cl -27.6%
CCc1ccc(C(=O)c2cn(CC(=O)Nc3cccc(C)c3C)c3nc(C)ccc3c2=O)cc1 -8.52%
COc1ccc(CCNC(=O)C2=C(C)C(=O)OC23CCCCC3)c(OC)c1 -18.9%
COc1ccc(CNC(=O)CCc2c(C)nn(-c3ccc(N4CCOCC4)nn3)c2C)cc1 0.816%
Cc1ccc(CNC(=O)c2cc(Sc3ccc(F)cc3F)nc3ccccc23)cc1 -20.3%
Cc1cccc(NC(=O)CSc2nc(C)c(Cc3ccccc3)c(=O)[nH]2)c1C -17.5%
CCC(C(=O)N(C)Cc1ccccc1)n1nc(C)c2sc3ccccc3c2c1=O (centres undefined) -12.8%
COc1ccc(NC(=O)C2CCCN(S(=O)(=O)c3ccc4[nH]c(=O)ccc4c3)C2)cc1OC (centres undefined) -7.82%
Cc1ccc2ccc3cc(C(=O)Nc4ccc(C)c(F)c4)nc3c2[nH]1 -22.9%
CC(=O)N1CCCC1c1nc2ccccc2n1Cc1cc(C)ccc1C (centres undefined) -11%
CCOC(=O)N1CCN(S(=O)(=O)N2CCCC(C(=O)NCc3ccccc3OC)C2)CC1 (centres undefined) -6.13%
CCOC(=O)c1ccc(CN(Cc2ccc(F)cc2)S(=O)(=O)c2cc(C(=O)Nc3ccccc3CC)ccc2F)cc1 -20.7%
O=C(NCC(c1cccnc1)N1CCc2ccccc2C1)C(=O)Nc1cccc(Cl)c1 (centres undefined) -15.4%
COc1ccc(-c2cc(C(=O)NCCc3ccccc3)c3c(-c4ccccc4)[nH]nc3n2)cc1 -7.17%
O=C(Cc1ccc(F)cc1)Nc1cccc(-c2nc3cccnc3s2)c1 -0.704%
Cc1cccc(N2CCN(C(=O)CCCn3ncn4c(cc5occc54)c3=O)CC2)c1C -13.8%
CCOc1cc(CNCCSc2nnnn2C)cc(Cl)c1OCc1ccc(Cl)cc1 2.35%
CCc1ccc(NC(=O)CCc2c(C)n(C)c3cc(-c4ccccc4C)nn3c2=O)cc1 -6.03%
Cc1ccc(CCNS(=O)(=O)c2ccc3c(c2)CCN3C(=O)CCC(=O)O)cc1 -12.7%
CCOC(=O)c1cnc2c(ccc3ccccc32)c1Nc1ccc(OC)cc1OC -3.64%
COc1cccc(N=C2SC(C(=O)Nc3cccc(Cl)c3)CC(=O)N2C)c1 (centres undefined) -29.7%
Cc1ccc(/C=C/c2nc3ccccc3n2S(=O)(=O)c2ccc(Br)cc2)cc1 -11.8%
CC(=O)N1CCc2c(sc3c2c(=O)n(-c2ccccc2)c(=O)n3Cc2cccc(C(F)(F)F)c2)C1 -15.1%
COc1ccc(N2CCN(C(=O)CCc3c(C)nc4cc(-c5cccc(F)c5)nn4c3C)CC2)cc1 -21.3%

Reference: PubChem BioAssay AID1159614 (National Center for Advancing Translational Sciences (NCATS), 2016)
